# Data: PubChem BioAssay (NCATS)
# The shares of active, inactive and inconclusive entries below differ from those in the screen. For some of these results: Potencies of inconclusive entries are doubtful fits and often do not repeat. Calls of active or inactive are those of the source. Unless noted, calls come from the whole dose curve; as a rule, active = well fitted curve in the direction sought with a large enough effect; inconclusive = small, poorly fitted or top-dose-only effect, or another doubt; inactive = no such curve, though single readings can be large; an effect the other way counts as inactive or inconclusive.
# Assays:
# [1] = AP1 Signaling Pathway (AID 357; active = well fitted curve in either direction with a large enough effect, not every such curve was filed as active; inconclusive = small, poorly fitted or top-dose-only effect, or another doubt;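 note: ME-180 reporter cells stimulated with EGF at its EC50 level; top concentration of the series differs between compounds; % is set by controls: 0 for no effect and ±100 for the full control effect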); conditions: ME-180 AP-1-bla reporter, EGF-induced, beta-lactamase ratio, 5 h; at 17.2 µM (top of the series) unless noted
# Procedure, shortened: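 In this screen, ME-180 cells in Opti-MEM with 0.5% dialyzed FBS received EC50 EGF and compound titrations for 5 h. AP-1 reporter beta-lactamase was detected via CCF4 ratio, giving AC50 for positive and negative modulators.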
# [2] = Stat Signaling Pathway (AID 446; active = well fitted curve in either direction with a large enough effect, not every such curve was filed as active; inconclusive = small, poorly fitted or top-dose-only effect, or another doubt;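 note: ME-180 cervical cancer cells given 40 pM IL-6 alongside compound; SIE-controlled beta-lactamase reporter measured as 460/530 nm FRET emission ratio; top concentration of the series differs between compounds; % is set by controls: 0 for no effect and ±100 for the full control effect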); conditions: ME-180 SIE beta-lactamase reporter, IL-6 stimulated, 5 h; at 38 µM (top of the series) unless noted
# Procedure, shortened: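 Overnight-plated ME-180 cells bearing a STAT Inducible Element beta-lactamase reporter; 5 h co-exposure to compound and 40 pM IL-6; values normalized to 300 pM IL-6 and 125 nM JAK inhibitor controls.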
# [3] = target: Cytochrome P450 1A2 (Homo sapiens) (UniProt P05177); experiment: p450-cyp1a2 (AID 410; calls by dose curve; note: potency is the fitted concentration of half-maximal effect;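 for activity change, negative = inhibition: top concentration of the series differs between compounds; -100% = full effect of reference inhibitor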)
# Chain of UniProt P05177 (P05177 whole entry, looked up): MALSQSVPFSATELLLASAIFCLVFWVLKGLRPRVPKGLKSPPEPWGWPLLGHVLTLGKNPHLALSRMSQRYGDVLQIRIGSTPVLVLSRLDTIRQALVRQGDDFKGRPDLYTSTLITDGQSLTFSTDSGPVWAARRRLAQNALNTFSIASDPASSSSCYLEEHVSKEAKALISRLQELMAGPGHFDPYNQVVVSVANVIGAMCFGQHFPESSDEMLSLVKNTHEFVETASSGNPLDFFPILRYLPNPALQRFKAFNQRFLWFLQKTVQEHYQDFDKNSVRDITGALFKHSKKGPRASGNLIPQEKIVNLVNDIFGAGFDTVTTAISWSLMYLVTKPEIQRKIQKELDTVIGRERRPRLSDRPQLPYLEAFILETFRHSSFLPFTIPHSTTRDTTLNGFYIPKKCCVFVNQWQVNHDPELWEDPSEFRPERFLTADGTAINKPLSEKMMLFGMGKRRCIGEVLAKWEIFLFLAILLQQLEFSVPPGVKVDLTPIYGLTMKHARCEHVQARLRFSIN
# Procedure, shortened: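 Read-out is luminescence from luciferin produced by CYP1A2 demethylation of Luciferin-ME (100uM, at Km). Detection reagent stopped the 60 min NADPH-dependent reaction; signals were normalized to 57 uM furafylline.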
# [4] = NFAT Signaling Pathway (AID 444; active = well fitted curve in either direction with a large enough effect, not every such curve was filed as active; inconclusive = small, poorly fitted or top-dose-only effect, or another doubt;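 note: carbachol stimulus at about its EC50 of 1 µM final; % is set by controls: 0 for no effect and ±100 for the full control effect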); conditions: Jurkat NFAT-bla M1, carbachol, beta-lactamase ratio, 5 h; at 7.69 µM (top of the series) unless noted
# Procedure, shortened: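 Read-out: CCF4 FRET ratio (460 nm/530 nm) after 1 h RT dye loading, used for %activity and AC50 from titration series. Cells: Jurkat NFAT-β-lactamase/M1 line, treated with compound plus 1 uM carbachol for 5 h, 37 °C.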
# [5] = qHTS Assay for Identification of Small Molecule Agonists for Hypoxia Response Element Signaling Pathway (AID 914; active = well fitted activation curve with a large enough effect in the signal ratio, with a control signal flat, not every such curve was filed as active; inconclusive = small, poorly fitted or top-dose-only effect, or effect the other way, or a change in a side signal; the % refers to the signal ratio; note: potency is the fitted concentration of half-maximal effect; for activation: top concentration of the series differs between compounds; % of control where 0% means no effect); conditions: ME-180 (cervical carcinoma) HRE-bla reporter, beta-lactamase ratio, CoCl2, 17 h; activation: active compounds read high
# Procedure, shortened: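 HRE-bla ME-180 assay for agonist-like enhancement of an EC50 CoCl2 stimulus: 17 h at 37 degrees Celsius, CCF4 for 2.5 h, ratiometric 460/530 nm signal converted to %Activity and fitted to AC50.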
# [6] = target: Cytochrome P450 3A4 (Homo sapiens) (UniProt P08684); experiment: qHTS Assay for Inhibitors and Substrates of Cytochrome P450 3A4 (AID 884); note: % is set by controls: 0 for no effect and ±100 for the full control effect; nearly all actives have a fitted effect of over 50% in size
# Chain of UniProt P08684 (P08684 whole entry, looked up): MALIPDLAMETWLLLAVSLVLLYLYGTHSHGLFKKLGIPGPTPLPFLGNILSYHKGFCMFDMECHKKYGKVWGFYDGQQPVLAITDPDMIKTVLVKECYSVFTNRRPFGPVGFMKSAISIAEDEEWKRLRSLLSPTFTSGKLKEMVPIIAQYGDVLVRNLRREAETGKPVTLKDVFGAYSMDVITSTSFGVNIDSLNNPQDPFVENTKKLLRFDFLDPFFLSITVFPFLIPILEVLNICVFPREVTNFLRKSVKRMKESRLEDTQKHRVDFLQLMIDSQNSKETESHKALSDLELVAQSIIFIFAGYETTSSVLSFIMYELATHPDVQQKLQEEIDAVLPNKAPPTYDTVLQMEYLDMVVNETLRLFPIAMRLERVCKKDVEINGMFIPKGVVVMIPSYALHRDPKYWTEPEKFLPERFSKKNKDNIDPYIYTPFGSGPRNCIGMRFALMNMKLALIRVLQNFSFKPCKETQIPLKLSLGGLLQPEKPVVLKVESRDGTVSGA
# Procedure, shortened: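 Luminescent readout of luciferin produced by CYP3A4 (20 nM) dealkylation of Luciferin-PPXE, 25 uM (its KM). NADPH-driven reaction ran 60 min at RT after 10 min compound preincubation; data scaled to 57 uM ketoconazole as 100% inhibition.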
# [7] = target: Cytochrome P450 3A4 (Homo sapiens) (UniProt P08684); experiment: qHTS Assay for Activators of Cytochrome P450 3A4 (AID 885); conditions: recombinant CYP3A4, Luciferin-PPXE luminescence, 60 min; activity change, positive = activation: at 57.1 µM (top of the series); note: nearly all actives have a fitted effect of over 65% in size; note: potency is the fitted concentration of half-maximal effect
# Procedure, shortened: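 Using 20nM recombinant human CYP3A4 in potassium phosphate (200mM), substrate Luciferin-PPXE at 25uM, luminescent luciferin detection followed a 60-min RT NADPH reaction; data scaled to 57 uM ketoconazole.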
# [8] = target: Cytochrome P450 2C19 (Homo sapiens) (UniProt P33261); experiment: qHTS Assay for Inhibitors and Substrates of Cytochrome P450 2C19 (AID 899); note: potency is the fitted concentration of half-maximal effect; nearly all actives have a fitted effect of over 60% in size
# Chain of UniProt P33261 (P33261 whole entry, looked up): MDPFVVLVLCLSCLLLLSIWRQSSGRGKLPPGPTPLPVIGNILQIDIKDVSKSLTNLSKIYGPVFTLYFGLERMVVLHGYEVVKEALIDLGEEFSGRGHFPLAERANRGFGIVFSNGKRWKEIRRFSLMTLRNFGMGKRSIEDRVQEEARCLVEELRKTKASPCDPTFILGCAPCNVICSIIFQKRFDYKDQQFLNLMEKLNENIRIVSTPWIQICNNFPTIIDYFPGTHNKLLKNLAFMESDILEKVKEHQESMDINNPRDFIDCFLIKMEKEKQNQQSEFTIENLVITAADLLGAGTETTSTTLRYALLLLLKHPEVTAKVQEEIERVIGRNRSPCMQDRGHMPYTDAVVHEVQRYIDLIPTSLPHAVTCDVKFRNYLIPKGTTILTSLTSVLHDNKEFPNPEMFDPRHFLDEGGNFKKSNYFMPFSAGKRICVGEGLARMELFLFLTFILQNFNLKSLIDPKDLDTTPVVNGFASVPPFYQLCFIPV
# Procedure, shortened: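 Luminescence readout of luciferin formed from 10uM Luciferin-H EGE (KM level) by 5 nM CYP2C19 in 50mM KPO4. 60 min NADPH-driven reaction at 37C after 10 min compound preincubation; data scaled to 57uM ketoconazole inhibition.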
# [9] = qHTS Assay for Identification of Small Molecule Agonists for Thrombopoietin (TPO) Signaling Pathway (AID 917); note: potency is the fitted concentration of half-maximal effect
# Procedure, shortened: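 Stimulation at the TPO EC50 (26 pM final) was used to detect activators. Ba/F3 mouse cells bearing human TPO receptor and a luciferase reporter under the Glycoprotein IIb promoter were exposed to compounds for 24 hrs at 37 C.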
# [10] = qHTS Assay for Identification of Small Molecule Antagonists for Thrombopoietin (TPO) Signaling Pathway (AID 918); conditions: TPO-dependent cell signaling reporter, antagonist mode; activity change, negative = inhibition: at 38.5 µM (top of the series); note: potency is the fitted concentration of half-maximal effect; nearly all actives have a fitted effect of over 60% in size
# Procedure, shortened: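 Antagonist mode at EC50 TPO (26 pM) in IL-3-free medium; murine Ba/F3 cells with human TPO receptor and GPIIb-promoter luciferase, 24 hrs at 37 C before luminescent detection.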
# [11] = target: Muscarinic acetylcholine receptor M1 (Rattus norvegicus) (UniProt P08482); experiment: qHTS Assay for Antagonists of Acetylcholine Muscarinic M1 Receptor: Measurement of IP-One Response (AID 944); note: potency is the fitted concentration of half-maximal effect; nearly all actives have a fitted effect of over 75% in size
# Chain of UniProt P08482 (P08482 whole entry, looked up): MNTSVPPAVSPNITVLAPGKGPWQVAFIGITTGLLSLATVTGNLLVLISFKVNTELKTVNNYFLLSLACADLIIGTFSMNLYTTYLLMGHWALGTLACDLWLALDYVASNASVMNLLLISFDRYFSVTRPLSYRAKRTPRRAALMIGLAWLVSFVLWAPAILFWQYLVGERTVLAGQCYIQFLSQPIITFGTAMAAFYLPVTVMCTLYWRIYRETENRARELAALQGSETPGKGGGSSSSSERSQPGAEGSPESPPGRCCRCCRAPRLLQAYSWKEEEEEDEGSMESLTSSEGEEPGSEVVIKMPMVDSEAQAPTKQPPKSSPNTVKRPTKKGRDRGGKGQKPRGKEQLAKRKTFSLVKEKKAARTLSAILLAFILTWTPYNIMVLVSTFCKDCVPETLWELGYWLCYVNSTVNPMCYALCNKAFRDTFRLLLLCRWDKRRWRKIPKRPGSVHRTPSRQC
# [12] = target: Pyruvate kinase PKM (Homo sapiens) (UniProt P14618); experiment: qHTS Assay for Activators of Human Muscle Pyruvate Kinase (AID 954; active = well fitted curve in the direction sought with a large enough effect, not every such curve was filed as active; inconclusive = small, poorly fitted or top-dose-only effect, or effect the other way, or another doubt; inactive = no such curve, though single readings can be large or run the other way; note: potency is the fitted concentration of half-maximal effect); conditions: purified human muscle pyruvate kinase, luciferase-coupled luminescence, 1 h
# Chain of UniProt P14618 (P14618 whole entry, looked up): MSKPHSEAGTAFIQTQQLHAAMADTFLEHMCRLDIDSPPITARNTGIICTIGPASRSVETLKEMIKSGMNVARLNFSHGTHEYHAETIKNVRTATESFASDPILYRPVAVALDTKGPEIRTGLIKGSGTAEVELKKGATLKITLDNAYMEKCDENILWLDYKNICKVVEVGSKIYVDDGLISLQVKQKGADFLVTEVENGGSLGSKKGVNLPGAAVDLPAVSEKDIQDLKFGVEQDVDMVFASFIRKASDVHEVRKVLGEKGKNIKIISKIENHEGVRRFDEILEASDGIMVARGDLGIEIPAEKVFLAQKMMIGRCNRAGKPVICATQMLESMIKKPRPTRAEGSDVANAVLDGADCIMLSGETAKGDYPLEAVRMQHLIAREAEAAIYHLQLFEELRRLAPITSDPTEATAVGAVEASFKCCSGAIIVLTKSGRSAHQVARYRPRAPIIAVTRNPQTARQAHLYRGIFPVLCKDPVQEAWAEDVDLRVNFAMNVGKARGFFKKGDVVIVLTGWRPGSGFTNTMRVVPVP
# Procedure, shortened: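 Screening used highly purified human pyruvate kinase M2 under submaximal activity, with PEP at its Km and ADP below Km. After an hour at room temperature, ATP was read by luciferase luminescence.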
# [13] = target: 3',5'-cyclic-AMP phosphodiesterase 4B (Homo sapiens) (UniProt Q07343); experiment: qHTS Assay for Inhibitors of PDE-IV (AID 607; active = well fitted activation curve with a large enough effect in the main read-out, with a control signal flat, not every such curve was filed as active; inconclusive = small, poorly fitted or top-dose-only effect, or effect the other way, or a change in a side signal; note: potency is the fitted concentration of half-maximal effect); conditions: HEK293 ACTOne CNG channel cells, membrane potential fluorescence; activation (PDE inhibition): at 22.9 µM (top of the series)
# Chain of UniProt Q07343 (Q07343 whole entry, looked up): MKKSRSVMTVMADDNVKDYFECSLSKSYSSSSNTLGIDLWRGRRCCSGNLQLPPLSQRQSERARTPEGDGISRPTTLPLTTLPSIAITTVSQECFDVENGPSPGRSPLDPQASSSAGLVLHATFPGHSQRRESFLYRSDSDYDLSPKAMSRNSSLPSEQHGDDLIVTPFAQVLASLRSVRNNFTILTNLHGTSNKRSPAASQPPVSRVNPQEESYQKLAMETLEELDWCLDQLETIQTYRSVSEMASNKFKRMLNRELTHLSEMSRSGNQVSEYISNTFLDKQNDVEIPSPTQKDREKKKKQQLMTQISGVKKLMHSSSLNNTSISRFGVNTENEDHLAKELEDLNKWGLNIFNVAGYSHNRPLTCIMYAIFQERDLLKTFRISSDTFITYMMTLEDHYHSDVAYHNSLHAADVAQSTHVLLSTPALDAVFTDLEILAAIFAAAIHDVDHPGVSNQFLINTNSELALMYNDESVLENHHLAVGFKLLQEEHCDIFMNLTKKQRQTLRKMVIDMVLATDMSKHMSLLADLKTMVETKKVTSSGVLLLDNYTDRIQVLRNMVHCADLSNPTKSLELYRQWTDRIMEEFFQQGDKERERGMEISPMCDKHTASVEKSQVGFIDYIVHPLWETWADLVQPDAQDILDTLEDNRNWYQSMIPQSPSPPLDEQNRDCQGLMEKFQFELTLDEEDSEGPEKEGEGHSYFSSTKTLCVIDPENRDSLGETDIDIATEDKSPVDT
# Procedure, shortened: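 Live HEK293 cells with a modified cyclic nucleotide-gated (CNG) channel report intracellular cAMP via membrane-potential dye fluorescence (ex 535/em 590 nm). Endogenous PDE-IV was targeted. Compounds were tested at up to 22.9 uM final; RO 20-1724 100 uM served as control.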
# [14] = target: Guanine nucleotide-binding protein G(i) subunit alpha-1 (Homo sapiens) (UniProt P63096); experiment: qHTS Assay for Inhibitors of RGS12 GoLoco Motif Activity (Green Fluorophore) (AID 879);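 note: 0% = labeled peptide with Gαi1 and full inhibition = labeled peptide alone without protein; negative values mean loss of peptide binding seen as reduced polarization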
# Chain of UniProt P63096 (P63096 whole entry, looked up): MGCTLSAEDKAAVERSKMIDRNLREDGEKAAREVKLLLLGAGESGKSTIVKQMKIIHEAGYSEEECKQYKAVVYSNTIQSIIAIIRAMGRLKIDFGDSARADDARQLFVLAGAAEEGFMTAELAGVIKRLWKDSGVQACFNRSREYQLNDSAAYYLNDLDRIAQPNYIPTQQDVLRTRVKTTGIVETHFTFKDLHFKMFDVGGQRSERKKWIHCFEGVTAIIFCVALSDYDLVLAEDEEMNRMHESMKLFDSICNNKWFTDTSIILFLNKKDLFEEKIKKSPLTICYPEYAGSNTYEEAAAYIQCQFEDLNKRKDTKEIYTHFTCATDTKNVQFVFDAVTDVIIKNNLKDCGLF
# Procedure, shortened: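 A drop in FITC polarization marked displacement of the FITC-tagged RGS12 GoLoco peptide (10 nM) from Gαi1 (50 nM). Compounds were incubated 10 min at room temperature in Tris pH 7.5 buffer containing 150 mM NaCl, 0.1 mM GDP and 0.05% NP40; unlabeled peptide titration served as control.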
# [15] = qHTS Assay for Identification of Small Molecule Antagonists for NFkB Signaling Pathway (AID 895; active = well fitted inhibition curve with a large enough effect in the signal ratio, with a control signal flat, not every such curve was filed as active; inconclusive = small, poorly fitted or top-dose-only effect, or effect the other way, or a change in a side signal; the % refers to the signal ratio; note: % is set by controls: 0 for no effect and ±100 for the full control effect); conditions: NFkB beta-lactamase reporter cells, FRET ratio 460/530; activity change, negative = inhibition: at 38.3 µM (top of the series) unless noted
# Procedure, shortened: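 Beta-lactamase reporter read-out (460 and 530 nm emission ratio, 405 nm excitation, 2 hrs substrate loading RT) after 5 hr stimulation with 10 pM TNF alpha in compound-treated NFkB-bla ME-180 cells in low-serum medium.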
# [16] = target: Muscarinic acetylcholine receptor M1 (Rattus norvegicus) (UniProt P08482); experiment: qHTS Assay for Antagonists of Acetylcholine Muscarinic M1 Receptor: Kinetic Measurement of Intracellular Calcium Response (AID 943); note: potency is the fitted concentration of half-maximal effect; nearly all actives have a fitted effect of over 75% in size
# Procedure, shortened: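 Quantitative HTS in CHO-M1 (rat receptor) cells: 10 min compound exposure ahead of 100 nM carbachol, Fluo-4 fluorescence followed 4 min, value expressed as peak-to-basal ratio.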
# Tags give direction and shape of the fitted curve or compound fluorescence and quenching.
compound,measurement,setting,value
CN1[C@@H]2CC[C@H]1CC(O)C2 (stereo partly drawn),"activity change, negative = inhibition",[1],inconclusive: 6.63% [inhibitor]
same,"activity, negative = inhibition",[2],inactive: -4.36% [at 17.2 µM]
CC1=CC(=O)C2=C(C)C[C@@H](O)[C@@H]3[C@@H](OC(=O)[C@H]3C)[C@H]12,Potency,[3],inconclusive: 25.1 µM [decreasing]
C[C@@]12CC[C@H]3[C@@H](CCC4=CC(=O)CC[C@]43C)[C@H]1CCC2=O,Potency,[3],inactive
same,"activity change, negative = inhibition",[4],inactive: 9.12% [at 38 µM]
Cc1ccc(S(=O)ON2CCC(C(=O)O)(c3ccccc3)CC2)cc1 (stereo not drawn),Potency,[3],inconclusive: 3.98 µM [decreasing]
OC(Cc1ccccc1)(c1ccccc1)C1CN2CCC1CC2 (stereo not drawn),"activity change, negative = inhibition",[1],inconclusive: 9.53% [activator]
same,"activity change, negative = inhibition",[4],active: -83.4% [at 17.2 µM]
same,activation,[5],inactive: 10.8%
C[C@]12Cc3cn4c(nc3C=C1CC[C@H]1[C@@H]2CC[C@@]2(C)[C@H]1CC[C@@]2(O)C#N)nc1ccccc14,"activity change, negative = inhibition",[1],inconclusive: -3.58% [inhibitor] [at 38 µM]
same,"activity change, negative = inhibition",[4],inconclusive: -84.7% [inhibitor] [at 38 µM]
same,Potency,[6],inactive
same,Potency,[7],"inconclusive: 0.0316 µM [activator, full curve]"
same,Potency,[8],"inconclusive: 7.94 µM [inhibitor, full curve, poor fit]"
same,Potency,[5],"inconclusive: 0.251 µM [inhibitor, full curve]"
same,Potency,[9],"inconclusive: 10 µM [inhibitor, partial curve]"
same,Potency,[10],active: 10 µM
same,Potency,[11],"inconclusive: 0.355 µM [inhibitor, partial curve, poor fit]"
same,Potency,[12],"inconclusive: 20 µM [activator, single point]"
Ic1ccccc1CN[C@@H]1C2CCN(CC2)[C@H]1C(c1ccccc1)c1ccccc1,"activity change, negative = inhibition",[1],inconclusive: 40.9% [activator] [at 38 µM]
same,"activity, negative = inhibition",[2],inconclusive: -47.1% [inhibitor]
same,Potency,[13],"inconclusive: 6.31 µM [rising, partial curve, poor fit]"
same,Potency,[14],inactive
same,Potency,[7],inactive
same,"activity change, negative = inhibition",[15],inconclusive: 39.2%
same,Potency,[9],"inconclusive: 12.6 µM [inhibitor, partial curve]"
same,Potency,[10],active: 12.6 µM
same,Potency,[16],"inconclusive: 14.1 µM [inhibitor, partial curve, poor fit]"
